B1: OR4K15 (parent)
chain: GUUAACGGUCAUAGGCCAUGGAAACUAGGAGCACCAUUUCGCUGCCAGUGAAGAAAUGAACAAAGAAAAUCUGGGCCAGGCAGGCAUCAAAAGAAAUAGUCUUGCGCUCAACCAGAAAGUCUGUAAUCAUUUUAAGGGUA

The source gives no read counts; variants with many changes may rest on few reads.

The data set covers variants of B1. Nature of the data set: self-cleavage, relative activity (ratio to wild type); higher = more cleavage; in vitro, sequencing; the parent is a self-cleaving ribozyme.
With U2C A96G U122C, the self-cleavage came out at 1.68. As to U2C A59G U72C A111G, the self-cleavage was found to be 0.03.

In the case of G1U U19C A117G A118G, the self-cleavage was 0.7. The result for U2C A56G A66G A67G U102C reads 0.92. Consider U2C U9A G53A U130C, for which the self-cleavage is 0.5. Turning to U2C A89G A111G, the self-cleavage is 0.07.

Consider U2C U43A A126G, for which the self-cleavage turned out to be 0.93.

For U2C U49C A60G, the self-cleavage is 0.66. As for U2C A24G A118G, the self-cleavage was 0.15. On to U2C A5G A24C G48A U108C, for which the self-cleavage is 0.04.

U2C U103C U108A A135G: the self-cleavage was found to be 0. For the variant U2C G7A A62G A63G G136U A140U, the self-cleavage worked out at 1.44. Take U2C G14A A54G A111U U127G: the self-cleavage came out at 0.11. For the variant U2C U19A A36G C40U A60G, the self-cleavage came to 0.75. On to U3A A18U A22U A82C A116G, for which the self-cleavage was found to be 0.03. As for U2C U39C A111G, the self-cleavage was 0.06.

With U2G U12C U103C, the self-cleavage was 0.17. In the case of U2C A11C U38C A78G A116G, the self-cleavage turned out to be 0.21. Turning to U2C A47U A91C, the self-cleavage was found to be 1.31.

As for U2C U9C A56G A68G, the self-cleavage turned out to be 0.55. The result for U2C U9A U19C U57A A116G U131C reads 0.14; that for U2C A55G C107G, 0.04; that for U3A A13G A94G, 0.76. Regarding U2C U9A A24U C109U A117U, the self-cleavage is 0.16.

Regarding U2C A24U U49C, the self-cleavage came out at 1.03.

In the case of U2C A24C A52G A55G U57A A95G, the self-cleavage came to 1.02. The result for U2C A91G U103C reads 0.25; that for U2C A66G U131C, 0.61; that for U2A A18U G83A, 1.17. Regarding U2C U72A A117G, the self-cleavage came to 0.21. U3A A5G A62G A82U U127C: the self-cleavage is 0.15. Turning to U2C A56G A59G A66G U70A A125G, the self-cleavage came to 0.2.

Turning to U3A A13G U72A A91G, the self-cleavage is 0.31. For the variant U2C A13G A23U A63G, the self-cleavage was determined as 1.

Turning to U2A A22U C40U A51G, the self-cleavage is 0.93. The result for U2C A55G A56G A69G U103C reads 0.87; that for U2C A63G A89G U132G, 1.39; that for G1A U37A A118U, 1.07.

On to U2C U38C A114U, for which the self-cleavage is 0.17. As to U2A U26C U39C U100C A135G, the self-cleavage is 1.69. In the case of U3A A56G U127C U130C, the self-cleavage came out at 0.88. Consider U2C A56G A68G A110G, for which the self-cleavage came out at 0.11.

For the variant U2C U97C A117G, the self-cleavage was 1.14. U2A U43A U103C U122C: the self-cleavage was 0.42. The result for U2A U72C A111G A117G reads 0.07; that for U2C A82U A91C U108C U120C, 0.02; that for U2C A30G A59G A89G U108C A135U, 0.03. Take U2C A55G A82U: the self-cleavage amounted to 0.22. Consider U2C A64G A114G, for which the self-cleavage was 0.26. As to G1A A24G A68G U103C, the self-cleavage was determined as 0.9. Regarding U2C A22G C107A, the self-cleavage was found to be 0.06.

For U3A A47G A59G U70C, the self-cleavage was determined as 0.23. As to U2C A33U U102G U133C, the self-cleavage stood at 0.59.

As to U2C A51U U130C, the self-cleavage came out at 1.35. The result for U2C U43G A47G reads 0.6. Consider U2C A11G G44A A96G U100C, for which the self-cleavage was 1.48. Regarding U2C U19A C42U A51G A52U, the self-cleavage is 0.71.

Take U2C A23G A24G: the self-cleavage was 1.69.

For U2C U70C C113U, the self-cleavage was found to be 0.01. Regarding U2C U9C A59G A60G A91G A96G A116G U122A, the self-cleavage was found to be 0.45. For U2C U9A A92G U108C, the self-cleavage stood at 0.08.

Regarding U2C U38C A96G, the self-cleavage amounted to 1.78. In the case of U3C A4G U9C A66G, the self-cleavage amounted to 1.33. Regarding U2C A54U A69U, the self-cleavage was determined as 1.4. With U2C U122C U131C, the self-cleavage was 0.91. In the case of U3A A54U U108C A114G, the self-cleavage stood at 0.

Take U2A U9C A18U A94G A114G: the self-cleavage stood at 0.89.

As to U2C A4G A78U A89G C105A, the self-cleavage came out at 0. Take U2C U3A A64G A96G: the self-cleavage came out at 1.47.

Regarding U2C U37C U38A U57A G79A, the self-cleavage is 0.29.

As to U2C U9C A23G A52G, the self-cleavage came to 0.91.

On to U2C U12A A95G, for which the self-cleavage amounted to 1.57. The result for U2C A92G U100C A129U reads 1.18. The result for U2C U9C U39C U131A reads 0.68; that for U2A A62G A82U, 0.47; that for U2A A11U U39C U43C A56G A91G A116G, 0.27. Take U2A A27G A59G A82G A92G U127C A129U: the self-cleavage was determined as 0.

Consider U2A A54G A55G A63G A67G A92G U122C, for which the self-cleavage amounted to 0.74. The same measure for U2C A91G U97C: 1.17. For U2G G7A U38C U108C, the self-cleavage stood at 0.09.

With U2C G14A A116U, the self-cleavage was 0.2. Regarding U2A A11G U57C A78U A126G, the self-cleavage amounted to 0.19. The result for U2C A86G A90G U120A reads 0.58; that for U2C A18U A51G A78G U108C G115A U130C, 0.01.

Consider U2A G31U A52G A92G, for which the self-cleavage is 1.45. Turning to U2C U12C A51G U72C A114G U120C, the self-cleavage is 1.18. On to U2C A52G A78U A110G A134U, for which the self-cleavage came to 0.02. Take U2A A64G A68G: the self-cleavage amounted to 0.69. Turning to U2C A33G A69G A86G A89C, the self-cleavage turned out to be 0.23.

Consider U2A U124A U131C, for which the self-cleavage is 0.43. For the variant U2A A55G U87C, the self-cleavage was 0. The same measure for U2C A67G A118G: 0.5.

In the case of U2C A59G G93A A96G, the self-cleavage came out at 1.74.

On to G1A U2A U70C C105U, for which the self-cleavage is 0.25. U2A A60G G74A: the self-cleavage was found to be 0.2. On to U2C A23G U39G A96G, for which the self-cleavage was found to be 0.33. As to U3A A52G A63G U102C, the self-cleavage was found to be 0.61. Turning to U3A U97C A116G U131A, the self-cleavage was determined as 0.37. U2A A52G A89U: the self-cleavage stood at 1.07.

Turning to U2C A13G A36G A63G, the self-cleavage amounted to 0.61.

As to U2C A18U A129G, the self-cleavage was found to be 0.67. For U2C A54G U72C A78G A118G, the self-cleavage amounted to 0.08.

Take G1U A89G A111U: the self-cleavage is 0.16. Take U2C A110G U127C: the self-cleavage was 0.09. On to U2C A47G A135G, for which the self-cleavage turned out to be 1.83. U2C U87A A92U: the self-cleavage stood at 1.1. In the case of U2C A95C A96G U100C U132C, the self-cleavage turned out to be 2.99. With U2C A5G U120C, the self-cleavage was found to be 0.79. U2C A55G A91G: the self-cleavage amounted to 0.67. On to U2C C10U C121U A129G, for which the self-cleavage was found to be 1.32. Regarding U2C U19C U39A U49C G119A, the self-cleavage came to 1.36. In the case of U2C G8U A47U A114G, the self-cleavage is 0.3. Turning to U2C U12C A23U A66U U97A A116G, the self-cleavage was determined as 0.9. Regarding U2C U3C A18U A22G A92G, the self-cleavage amounted to 0.41. With U2C A56G A91G, the self-cleavage amounted to 0.7.

For U2A A24U A54G, the self-cleavage is 1.04.

For the variant U2C A55G A111U, the self-cleavage was determined as 0.14. Consider U2C U19C U139A, for which the self-cleavage was found to be 1.46. The result for U2C U39C U122C reads 0.76. U2C A89G A114U G137U: the self-cleavage stood at 0.08. Regarding U2A A62U A78G A116G U127C, the self-cleavage turned out to be 0.05.

Regarding U2C A62U A63U A126G, the self-cleavage worked out at 1.48. Turning to U2C U72A C113A, the self-cleavage stood at 0.04.

Turning to U2G A60G U87C U102A A117C, the self-cleavage worked out at 0.14.

In the case of U2C U70A A89G, the self-cleavage was 0.46. Consider U3A A4G U97C, for which the self-cleavage came to 1.5.

With U2C A52G A91G A129U, the self-cleavage was found to be 1.21. Consider U2C A23U A68G U108A U122G U133G, for which the self-cleavage stood at 0.02.

U3A U39C U43A A59G A126C: the self-cleavage was 0.62. With U2C C16A A55G U102C A129G, the self-cleavage turned out to be 0.44. For the variant U2A U9C U26C, the self-cleavage was found to be 1.11. In the case of U2C U37C A51G, the self-cleavage is 0.86. As for U2G A5G U127C, the self-cleavage came to 1.22. As for U2C U38A A78U U100C C101G, the self-cleavage came out at 0.03.

Regarding U2C A51U A60G U108C A129G U133C, the self-cleavage was found to be 0. The same measure for U2C A30G A67U: 1.65; for U2A A23G U49C A55G U70C G75C U87C: 0.2; for G1A A36U U130C: 1.73. With U2C A22G A59U, the self-cleavage was found to be 0.52. With U2C U26C A60G A116G, the self-cleavage was found to be 0.41.

G1A A36U U38C U70C U127C: the self-cleavage stood at 1.25.

Consider U3C A4C U72A A94G, for which the self-cleavage was found to be 0.52.

On to U2C U39C U120C, for which the self-cleavage is 0.7.

Consider U2G A52G A67G, for which the self-cleavage came out at 1.26. As for U2C A56C A59G, the self-cleavage was found to be 1.25. The same measure for U2C U43A U70C: 0.69; for U2C U102A A116U: 0.17; for U2G U100C U133C: 0.79. With U2C A56G U108A, the self-cleavage was 0.04.

As for U2C C81U A129G, the self-cleavage turned out to be 0.28. As to U3A A96G U102C, the self-cleavage was determined as 1.42. For U2C A78U A94G U124G, the self-cleavage amounted to 0.08. For the variant U2C U37C A67G A86G, the self-cleavage came to 1.23. Consider U3A A27G G93U, for which the self-cleavage stood at 0.83.

Turning to U2A U3C A89G, the self-cleavage turned out to be 1.12. As for U2C A22G A62U A69G, the self-cleavage came out at 0.79. As to U3A A18G A33G U49C A78G A116G, the self-cleavage was found to be 0.17. As to U2C U102A A118G, the self-cleavage worked out at 0.21. Turning to U2A A51G A63G U70C A91G C113U A135G, the self-cleavage worked out at 0.16. Take U3A A86G A92G U131C: the self-cleavage was determined as 1.35.

For G1A U9G A116U U131C, the self-cleavage worked out at 0.06. The same measure for U2C A60G U131C: 0.77; for U2A A66U A86G: 1.02. On to U2A U3C A30G C71U U122C, for which the self-cleavage stood at 0.33. In the case of U3A U39A U43C, the self-cleavage is 1.09.

On to U2C A68G A78G A98G A110U U120C, for which the self-cleavage worked out at 0.06.

Consider U2C A4G A59G A90G, for which the self-cleavage was 0.47.

Values taken from the RNAGym collection of RNA variant scans (doi:10.7554/elife.90254).
